In patent publication US20090074782A1 (ONCOMED PHARMACEUTICALS, published 2009):
One block for each binder: values may come before it.

Columns and labels:
FLAG-LGR5-CD4™ [1] = biological target: T1, FLAG-LGR5-CD4™ (human, UniProt O75473 22-564); experiment: FACS, RSPO2-Fc on HEK 293 cells transfected with FLAG-LGR5-CD4™ and GFP, with heparin
T1 construct: domain: transmembrane domain; Transiently expressed on HEK 293 cells together with GFP; also called variant cell-surface LGR5 protein; cell-associated LGR5 construct; not shown: N-terminal FLAG tag; transmembrane domain of CD4
T1 sequence: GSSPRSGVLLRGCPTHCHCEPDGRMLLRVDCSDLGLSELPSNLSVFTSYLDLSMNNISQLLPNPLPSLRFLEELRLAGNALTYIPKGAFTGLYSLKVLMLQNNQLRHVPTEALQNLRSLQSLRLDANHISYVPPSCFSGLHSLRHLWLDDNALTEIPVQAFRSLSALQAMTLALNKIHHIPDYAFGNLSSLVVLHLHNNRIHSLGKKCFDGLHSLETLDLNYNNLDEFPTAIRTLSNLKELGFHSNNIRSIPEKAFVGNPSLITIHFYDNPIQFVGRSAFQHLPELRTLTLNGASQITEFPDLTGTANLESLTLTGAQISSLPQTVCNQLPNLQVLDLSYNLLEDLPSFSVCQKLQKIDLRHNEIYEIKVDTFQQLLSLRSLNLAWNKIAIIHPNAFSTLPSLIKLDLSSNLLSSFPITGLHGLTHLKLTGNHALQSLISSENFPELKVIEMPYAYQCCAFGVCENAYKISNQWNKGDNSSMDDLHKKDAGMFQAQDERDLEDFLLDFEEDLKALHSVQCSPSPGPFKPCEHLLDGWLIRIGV
Experimental: (§1) To determine whether other RSPO family members also were able to bind to LGR5 additional studies were performed examining the interaction of each RSPO family member with LGR5. HEK 293 cells were transiently transfected with FLAG-LGR5-CD4™ and GFP. After 48 hours, cells were suspended in ice cold PBS containing 2% FCS heparin and then incubated on ice in the presence of RSPO1-Fc, RSPO2-Fc, RSPO3-Fc, RSPO4-Fc, FZD8-Fc, as indicated (FIG. 7C) or a FLAG antibody as a positive control. Each RSPO family member interacted with the LGR5 transfected cells.

FLAG-LGR5-CD4™ [2] = biological target: T1, FLAG-LGR5-CD4™; experiment: FACS, RSPO3-Fc on HEK 293 cells transfected with FLAG-LGR5-CD4™ and GFP, with heparin
Experimental: as §1

FLAG-LGR5-CD4™ [3] = biological target: T1, FLAG-LGR5-CD4™; experiment: FACS (FIG. 7C), RSPO1-Fc on HEK 293 cells transfected with FLAG-LGR5-CD4™ and GFP, with heparin
Experimental: as §1

FLAG-LGR5-CD4™ [4] = biological target: T1, FLAG-LGR5-CD4™; experiment: FACS, RSPO4-Fc on HEK 293 cells transfected with FLAG-LGR5-CD4™ and GFP, with heparin
Experimental: as §1

binding result (FLAG-LGR5-CD4™ [1]): binds
B1: RSPO2-Fc (Fc fusion)
chain: QGNRWRRSKRASYVSNPICKGCLSCSKDNGCSRCQQKLFFFLRREGMRQYGECLHSCPSGYYGHRAPDMNRCARCRIENCDSCFSKDFCTKCKVGFYLHRGRCFDECPDGFAPLEETMECVEGCEVGHWSEWGTCSRNNRTCGFKWGLETRTRQIVKKPVKDTILCPTIAESRRCKMTMRHCPGGKRTPKAKEKRNKKKKRKLIERAQEQHSVFLATDRANQGRA[… human IgG1 Fc …]

binding result (FLAG-LGR5-CD4™ [2]): binds
B2: RSPO3-Fc (Fc fusion)
chain: QNASRGRRQRRMHPNVSQGCQGGCATCSDYNGCLSCKPRLFFALERIGMKQIGVCLSSCPSGYYGTRYPDINKCTKCKADCDTCFNKNFCTKCKSGFYLHLGKCLDNCPEGLEANNHTMECVSIVHCEVSEWNPWSPCTKKGKTCGFKRGTETRVREIIQHPSAKGNLCPPTNETRKCTVQRKKCQKGERGKKGRERKRKKPNKGESKEAIPDSKSLESSKEIPEQRENKQQQKKRKVQDKQKSVSVSTVHGRA[… human IgG1 Fc …]

binding result (FLAG-LGR5-CD4™ [3]): binds
B3: RSPO1-Fc (Fc fusion)
chain: SRGIKGKRQRRISAEGSQACAKGCELCSEVNGCLKCSPKLFILLERNDIRQVGVCLPSCPPGYFDARNPDMNKCIKCKIEHCEACFSHNFCTKCKEGLYLHKGRCYPACPEGSSAANGTMECSSPAQCEMSEWSPWGPCSKKQQLCGFRRGSEERTRRVLHAPVGDHAACSDTKETRRCTVRRVPCPEGQKRRKGGQGRRENANRNLARKESKEAGAGSRRRKGQQQQQQQGTVGPLTSAGPAGRA[… human IgG1 Fc …]
notes: also called soluble RSPO1

binding result (FLAG-LGR5-CD4™ [4]): binds
B4: RSPO4-Fc (Fc fusion)
chain: LNRRKKQVGTGLGGNCTGCIICSEENGCSTCQQRLFLFIRREGIRQYGKCLHDCPPGYFGIRGQEVNRCKKCGATCESCFSQDFCIRCKRQFYLYKGKCLPTCPPGTLAHQNTRECQGECELGPWGGWSPCTHNGKTCGSAWGLESRVREAGRAGHEEAATCQVLSESRKCPIQRPCPGERSPGQKKGRKDRRPRKDRKLDRRLDVRPRQPGLQPGRA[… human IgG1 Fc …]
